Results: the supplement of paper PMC10369915
The list shows a part of the results. Rule as the data show it: active = 3.2 or more and inactive = the rest. Most of these values are background signal.

target: SHP2 C-SH2 domain E139D; test: enrichment score (SH2-bound / input frequency) (ratio); bacterial display of known human phosphotyrosine sites (pTyr-Var adds point mutants) read by sequencing; higher = stronger binding; tyrosines were phosphorylated by kinases first; conditions: peptide library: pTyr-Var
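Also: displayed peptides selected on beads carrying the immobilized SH2 domain, with library peptides lacking any tyrosine serving as negative controls.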

Binder	enrichment score
TNYCLYLRSLE [MTM1_Y71_R69C]	inactive: 1.1
TNFCLYLRSLE [MTM1_Y71_R69C_YF]	inactive: 1.33
TNYPLYLRSLE [MTM1_Y71_R69P]	inactive: 1.07
TNFRLYLRSLE [MTM1_Y71_YF]	inactive: 1.6
EAVLHYKHQNQ [MTOR_Y1804]	inactive: 1.16
IRQGHYESLKE [MTR_Y921_D919G]	inactive: 0.695
IRQDDYESLKE [MTR_Y921_H920D]	inactive: 0.775
LNCAGYCDALE [MTUS1_Y151]	inactive: 1.82
QMQNPYSRHSS [MUC13_Y501]	inactive: 0.659
RNNTEYVRDIG [MUSK_Y577_I575T]	inactive: 0.407
SSAAGYACLAF [MVD_Y131_YF]	inactive: 1.39
ACQSLYGGFVE [MVD_Y164_R161Q]	inactive: 1.28
FPPISYLHAIS [MVD_Y276_N278H]	inactive: 1.16
RMETAYGPSVT [MXRA5_Y2717_E2716A]	inactive: 1.02
VHSGTYQVMVR [MYBPC3_Y1043_T1046M]	inactive: 1.01
ITGNGYYFRVF [MYBPC3_Y1135_I1131T]	inactive: 0.593
ITGNGYFFRVF [MYBPC3_Y1135_I1131T_YF]	inactive: 0.635
IIGNGYYFHVF [MYBPC3_Y1135_R1138H]	inactive: 0.948

target: SHP2 C-SH2 domain wild-type; test: as above; conditions: peptide library: pTyr-Var

Binder	enrichment score
TNYCLYLRSLE [MTM1_Y71_R69C]	inactive: 1.48
TNFCLYLRSLE [MTM1_Y71_R69C_YF]	inactive: 1.41
TNYPLYLRSLE [MTM1_Y71_R69P]	inactive: 1.04
TNFRLYLRSLE [MTM1_Y71_YF]	inactive: 1.51
EAVLHYKHQNQ [MTOR_Y1804]	inactive: 1.11
IRQGHYESLKE [MTR_Y921_D919G]	inactive: 0.792
IRQDDYESLKE [MTR_Y921_H920D]	inactive: 0.585
LNCAGYCDALE [MTUS1_Y151]	inactive: 1.66
QMQNPYSRHSS [MUC13_Y501]	inactive: 0.716
RNNTEYVRDIG [MUSK_Y577_I575T]	inactive: 0.46
SSAAGYACLAF [MVD_Y131_YF]	inactive: 2.68
ACQSLYGGFVE [MVD_Y164_R161Q]	inactive: 0.896
FPPISYLHAIS [MVD_Y276_N278H]	inactive: 0.956
RMETAYGPSVT [MXRA5_Y2717_E2716A]	inactive: 0.65
VHSGTYQVMVR [MYBPC3_Y1043_T1046M]	inactive: 0.925
ITGNGYYFRVF [MYBPC3_Y1135_I1131T]	inactive: 0.941
ITGNGYFFRVF [MYBPC3_Y1135_I1131T_YF]	inactive: 0.9
IIGNGYYFHVF [MYBPC3_Y1135_R1138H]	inactive: 1.13

target: SHP2 N-SH2 domain L43F; test: as above; conditions: peptide library: pTyr-Var

Binder	enrichment score
TNYCLYLRSLE [MTM1_Y71_R69C]	inactive: 1.1
TNFCLYLRSLE [MTM1_Y71_R69C_YF]	inactive: 1.23
TNYPLYLRSLE [MTM1_Y71_R69P]	inactive: 1.34
TNFRLYLRSLE [MTM1_Y71_YF]	inactive: 1.7
EAVLHYKHQNQ [MTOR_Y1804]	inactive: 1.14
IRQGHYESLKE [MTR_Y921_D919G]	inactive: 0.717
IRQDDYESLKE [MTR_Y921_H920D]	inactive: 0.709
LNCAGYCDALE [MTUS1_Y151]	inactive: 1.77
QMQNPYSRHSS [MUC13_Y501]	inactive: 0.771
RNNTEYVRDIG [MUSK_Y577_I575T]	inactive: 0.525
SSAAGYACLAF [MVD_Y131_YF]	active: 3.3
ACQSLYGGFVE [MVD_Y164_R161Q]	inactive: 0.941
FPPISYLHAIS [MVD_Y276_N278H]	inactive: 0.959
RMETAYGPSVT [MXRA5_Y2717_E2716A]	inactive: 0.541
VHSGTYQVMVR [MYBPC3_Y1043_T1046M]	inactive: 0.889
ITGNGYYFRVF [MYBPC3_Y1135_I1131T]	inactive: 0.822
ITGNGYFFRVF [MYBPC3_Y1135_I1131T_YF]	inactive: 0.834
IIGNGYYFHVF [MYBPC3_Y1135_R1138H]	inactive: 0.901

target: SHP2 N-SH2 domain T42A; test: as above; conditions: peptide library: pTyr-Var

Binder	enrichment score
TNYCLYLRSLE [MTM1_Y71_R69C]	inactive: 1.1
TNFCLYLRSLE [MTM1_Y71_R69C_YF]	inactive: 0.868
TNYPLYLRSLE [MTM1_Y71_R69P]	inactive: 0.778
TNFRLYLRSLE [MTM1_Y71_YF]	inactive: 1.43
EAVLHYKHQNQ [MTOR_Y1804]	inactive: 1.04
IRQGHYESLKE [MTR_Y921_D919G]	inactive: 0.664
IRQDDYESLKE [MTR_Y921_H920D]	inactive: 0.732
LNCAGYCDALE [MTUS1_Y151]	inactive: 1.39
QMQNPYSRHSS [MUC13_Y501]	inactive: 0.451
RNNTEYVRDIG [MUSK_Y577_I575T]	inactive: 0.473
SSAAGYACLAF [MVD_Y131_YF]	active: 8.04
ACQSLYGGFVE [MVD_Y164_R161Q]	inactive: 0.846
FPPISYLHAIS [MVD_Y276_N278H]	inactive: 1.28
RMETAYGPSVT [MXRA5_Y2717_E2716A]	inactive: 0.391
VHSGTYQVMVR [MYBPC3_Y1043_T1046M]	inactive: 0.914
ITGNGYYFRVF [MYBPC3_Y1135_I1131T]	inactive: 0.611
ITGNGYFFRVF [MYBPC3_Y1135_I1131T_YF]	inactive: 0.647
IIGNGYYFHVF [MYBPC3_Y1135_R1138H]	inactive: 1.17

target: SHP2 N-SH2 domain T52S; test: as above; conditions: peptide library: pTyr-Var

Binder	enrichment score
TNYCLYLRSLE [MTM1_Y71_R69C]	inactive: 1.26
TNFCLYLRSLE [MTM1_Y71_R69C_YF]	inactive: 1.15
TNYPLYLRSLE [MTM1_Y71_R69P]	inactive: 0.883
TNFRLYLRSLE [MTM1_Y71_YF]	inactive: 1.31
EAVLHYKHQNQ [MTOR_Y1804]	inactive: 0.99
IRQGHYESLKE [MTR_Y921_D919G]	inactive: 0.596
IRQDDYESLKE [MTR_Y921_H920D]	inactive: 0.643
LNCAGYCDALE [MTUS1_Y151]	inactive: 1.9
QMQNPYSRHSS [MUC13_Y501]	inactive: 0.909
RNNTEYVRDIG [MUSK_Y577_I575T]	inactive: 0.457
SSAAGYACLAF [MVD_Y131_YF]	active: 3.29
ACQSLYGGFVE [MVD_Y164_R161Q]	inactive: 0.904
FPPISYLHAIS [MVD_Y276_N278H]	inactive: 1.02
RMETAYGPSVT [MXRA5_Y2717_E2716A]	inactive: 0.488
VHSGTYQVMVR [MYBPC3_Y1043_T1046M]	inactive: 0.984
ITGNGYYFRVF [MYBPC3_Y1135_I1131T]	inactive: 0.611
ITGNGYFFRVF [MYBPC3_Y1135_I1131T_YF]	inactive: 0.653
IIGNGYYFHVF [MYBPC3_Y1135_R1138H]	inactive: 1.03

target: SHP2 N-SH2 domain wild-type; test: as above; conditions: peptide library: pTyr-Var

Binder	enrichment score
TNYCLYLRSLE [MTM1_Y71_R69C]	inactive: 1.43
TNFCLYLRSLE [MTM1_Y71_R69C_YF]	inactive: 1.59
TNYPLYLRSLE [MTM1_Y71_R69P]	inactive: 1.04
TNFRLYLRSLE [MTM1_Y71_YF]	inactive: 1.56
EAVLHYKHQNQ [MTOR_Y1804]	inactive: 0.955
IRQGHYESLKE [MTR_Y921_D919G]	inactive: 0.84
IRQDDYESLKE [MTR_Y921_H920D]	inactive: 0.67
LNCAGYCDALE [MTUS1_Y151]	inactive: 1.85
QMQNPYSRHSS [MUC13_Y501]	inactive: 1.03
RNNTEYVRDIG [MUSK_Y577_I575T]	inactive: 0.562
SSAAGYACLAF [MVD_Y131_YF]	inactive: 2.17
ACQSLYGGFVE [MVD_Y164_R161Q]	inactive: 0.875
FPPISYLHAIS [MVD_Y276_N278H]	inactive: 1
RMETAYGPSVT [MXRA5_Y2717_E2716A]	inactive: 0.484
VHSGTYQVMVR [MYBPC3_Y1043_T1046M]	inactive: 0.829
ITGNGYYFRVF [MYBPC3_Y1135_I1131T]	inactive: 0.986
ITGNGYFFRVF [MYBPC3_Y1135_I1131T_YF]	inactive: 0.77
IIGNGYYFHVF [MYBPC3_Y1135_R1138H]	inactive: 1.26
